# Data published in the RNAGym collection of RNA variant scans (doi:10.7554/elife.90254).
# The source gives no read counts; variants with many changes may rest on few reads.
# B1: LINE1-mini (parent)
# chain: GGCAGAGCUCAACACAGCGUGGCAAAGUGGCUGUGGCUAGACUGCC
# Variants of: B1
# Test: self-cleavage, relative activity (ratio to wild type); higher = more cleavage; in vitro, sequencing; the parent is a self-cleaving ribozyme
row,Variant,self-cleavage
1,GGCAAAGCUUAACACAGCGUGGCAACGUGGCUGUGGCUAGCCUGCC,0.02
2,GGCAAAGCUUAACACAGCGUGGCAACGUGGCUGUGGCUAGUCUGCC,0.07
3,GGCAAAGCUCAACACAGAGUGGCAAAGUGGCUGUUUCUAUACUGCC,0.04
4,GGCAAAGCUCAACACAGCGUGGCAUAGUAGCUGAGGCUAGACUGCC,0.1
5,GGCAAAGCUCAGCACAGCGUGGCAAGGUGGCUGUGGCUAGACUGCC,0.07
6,GGCAAAGCUCAACAUAGCGUGGCUAAGGGGAUGUGGCUAGACUGCC,0.03
7,GGCAAAGCUUAACACAGCGUAGCAAAGUGGCUGAGACUAGACUGUC,0.05
8,GGCAAAGCUCAGCACAGCGUGGCAAAGUGGCUGCGCCUAGGCUGCC,0.01
9,GGCAAAGCUCAACUCAGCGUGGCAAAGUGGCUAUGGCUAGACUGCC,0.27
10,GGCAAAGCUCAACACAGCGUGGCUAAGUGGCUCUGGCUAGACUGCC,0.03
11,GGCAAAGCUCAGCAUAGCGUGGCAAAGUCGCUGUGGCAAGACUGCC,0.29
12,GGCAAAGUUCUCCACAGCGUGUCAAAGUGGCUGUGGCUAGACUGCC,0.03
13,GGCAAAGCUCAACACAGAGUGGCAAAGUGGCUGUCGCUAGACUGCC,0.04
14,GGCAAAGAUGAACACAGCGUGGCAAAGUGGCUGUUGAUAUACUGCC,0.01
15,GGCAAAGCUCAACAAAGCGUGGCAAAGGGGCUGUGGCUAGACUGCC,0.03
16,GGCAAAGCUCAAAACAGCGUGGCAAAGUUGCUGUAGCUAGAGAUCC,0.11
17,GGCAAAGCUCAACACAGCGUGGCAGAGUGGCUGUGGCUAGACUGUC,0.04
18,GGCAAAGCUCAACAUAGCGUGGCAAGGUGGCUGUGGAUAGACUGCC,0.15
19,GGCAAAGCUCAACAUAGCGUGGCAAAGUGGCUUUGGCUAGACUGCC,0.07
20,GGCAAAGCUCAACACAGCGUGGCAAAGUGGCUGUGGCUAGAAUGCA,0.02
21,GGCAAAGCUCAUCACAGCGUGGCAAAGUGGCUGUGGCUAGACUGUC,0.02
22,GGCAAAGUUCACCACAGCGUGGCAAAGUGGCUGUGGCUAGACUGCC,0.05
23,GGCAAAGUGCAACACAGCGUGGCAAAGUGGUUGUGGCUAGACUGCC,0.06

row,Variant,self-cleavage
1,GGCAAAGCUCACCACAGCGUGGCAAAGUGGCUGGGGCUAGACUGCC,0.01
2,GGCAAAGCUCAACACCGCGUGGCAAAGUGGCUGUGGCUAGACUGUA,0.06
3,GGCAAAGCUCAAUACUGCGUGGCAAAGUGGCUGUGGCUAGACUGCC,0.34
4,GGCAAAGCUCACCACAGCGUUGCAAAGUGGCUGUAGCUAGACUGCC,0.05
5,GGCAAAGCUCAACACAGGGUGGCAAAGUGGCAGUGCCAAGACUGCC,0.02
6,GGCAAAGCUCAACACAGCGUGGCAGUUUGGCUGUGGCUAGACUGCC,0.17
7,GGCAAAGCUCAACACUGCGUGGUAAAGUGGCUGUGGCUUGACUGCC,0
8,GGCAAAGCUGAACACAGCGUGGCGAAGUGGCUGUGGCUAGACUGCC,0.01
9,GGCAAAGCUCAACACAGCGUGGCAACGGGGCUGUGGCUAGUCUGCC,0.15
10,GGCAAAGCUCAACACAGCGUGGAAAAGUGGCUGUGGCUAGACAGCC,0.01
11,GGCAAAGCUCAACACAGAGUGGCGAAGUGGCUGUGGCUAGACUGGC,0.06
12,GGCAAAGCUCAACACAGCGUGGCCAGGUGGCGGUGGCUAGACUGCC,0.06
13,GGCAAAGCUCAACACAGUGUGGAAAAGUGGCUGUGGCUAGACUGCC,0.71
14,GGCAAAGCUAAACACAGCGUGUCAAAGUGGCUGUGGCUAGACUGCC,0.04
15,GGCAAAGCUCAACGCAGUGUGGCAAAGUGGCUGUGGCUAGACUGCC,0.05
16,GGCAAAGCUCAACACAGUGAGGCAACGUGGCGGUGGCUAGACUGCC,0.02
17,GGCAAAGCUCAACACAGCGUGGCAAAGUGGCUGUGGCUAGCAUGCC,0.01
18,GGCAAAGCUCAACACAGUGUGAAAAAAUGGCUGUGGCUAGACUGCC,2.03
19,GGCAAAACUCAACAUAGCGUGGCAAAGUGGCUGUGGCUAGAAUGCC,0.34
20,GGCAAAGCUCAAGACAGCGUGACAAAGUUGCUGUGGCUAGACUGCC,0.07
21,GGCAAAGCUCAACAGAGCGUGGCAAAGUGGCUGUCGCUAGACUGCC,0.01
22,GGCAAAGCUCAACACUGCGUGGCAAACUGUCUGUGGCUAGACUGCC,0.04
23,GGCAAAGCUCAACUCAGCGUGGCAAAGUUGCUGUGGCUAGAUUGAC,0.01

row,Variant,self-cleavage
1,GGCAAAGGUGAACACAGCGUGGCUAAAUGGCUGUGGCUAGACUGCC,0.01
2,GGCAAAGCUCAACACAGAGUGGCAAAGUGGCUGUGGCUACACUGCC,0.1
3,GGCAAAGCUCUACACAGCGUGGCAAAGUACCUGUAGCUAGACUGCC,0.04
4,GGCAAAGCUCAACACAGUGUCGCAAAGUGGCUGUGCCUAGACUGCC,0.12
5,GGCAAAGCUUAACACAGCUUGGCAAAGUGGCUGUAGCUAGACUGCC,0.01
6,GGCAAAGCUCAACACAGCGUGGCGAAGUGGCUGUGGCUAGACUGAC,0.03
7,GGCAAAGAUCAAAACAGCGUGGCAAAGUGGCUGUGGCUAGACUGCC,0.24
8,GGCAAAGUUCAACACAGCGUGGCAAGGUGGCUGUGACUAGACUGCC,1.73
9,GGCAAAGCUCAACACAGCGUGGCAGAGUUGCUGUGGCUAGACUGCC,0.13
10,GGCAAAGCUCAACACAGGCUGGCAAAAUGGCUGUGGCUAGACUGCC,0.29
11,GGCAAAGAUCAACACAGAGUGGCAAAGUGGCUGUGGCUAGACUGCC,0.14
12,GGCAAAGCUCAAAACAGCGUGGCGAAGUUGCUGUGGCUAGACUGCC,0
13,GGCAAAGCUAAACACAGCCUGGCUAACCGGCUGUGGCUAGACUGCU,0
14,GGCAAAGCUAAACACAACGUGGCAAUGUGGCCGUGGCUAGACUGAC,0.04
15,GGCAAAGCUCAACACAGCGUGGCAAAGUGGCUGUGGGUACACUGCC,0.02
16,GGCAAAGCUCAACACAGCGUGGCAUAGUGGCUGUCGCUAGACUUCC,0.09
17,GGCAAAGCUCAAAACAGCCUGACAAAGUGGAUCUGGCUAGACUGCC,0.02
18,GGCAAAGAUCAACACAGCGUUGCAAAGUGGCUCUGGCUAGACUGCC,0.08
19,GGCAAAGCUCAACACAGCGUGGCAAAGUGGCUGUGGCUUGACUGCU,0.05
20,GGCAAAGCUCAACAGAGCGUGGCAAAGUGGCUGGGGCUAGACUGCC,0.05
21,GGCAAAGCUCAACAGAGCGUGGCAAAGUGGCUGAGGCUAGACUGCC,0
22,GGCAAAGCUCAAUAGAGCGUGGCAAAGUGGGUGUGGCUAGACUGCC,0.01
23,GGCAAAGCUGAACACAGCGUGGCAAAGUGCCUGUGGCUAGACUGCU,0.01

row,Variant,self-cleavage
1,GGCAAAGCUAAAAACAGCGUGGUAAAUUGGCUGUGGUUAGACUGCC,0.01
2,GGCAAAGCUCAACACAGCGUGGAAAAGUGGCUGUGUCUAGACUGCC,0.03
3,GGCAAAGCUGAACACAGCGUGGCAAAGUGGCUGUGGCUAGAAUGCA,0.02
4,GGCAAAGCUCAACACUGCGUGGCAAAGUUGCUGUGGCUAGACUGCC,0.15
5,GGCAAAGAUCCACUCAGCGUGGUAAAGUGGCUGUGGUUGGACUGCC,0
6,GGCAAAGCUCAACAAAGCCUGGCAAAGUGGCUGUGGCUAGACUGCC,0.08
7,GGCAAAGAUCAACACAGCGUGGCAAAGUGGCUGUGGCUAGAUUGCC,0.05
8,GGCAAAGCUCAGCACAGCGUGGCAAAGUGGCUGUGGCUUGACUGCU,0.01
9,GGCAAAGAUCACCAAAGCGUGGAAAAGUGGCUGUGACUAUACUGCC,0.04
10,GGCAAAGCUUAGCACAGCGUGGCUAAGUGGCUGUGGCUAGACCGCC,0.01
11,GGCAAAGGUCAACAUAGCGUGGCAAAGCGGAUGUGGCUAGACUGCC,0.05
12,GGCAAAGCUCACCACAGCGUGGCAAAGUGGCUGCGGCUAGACUACC,0.02
13,GGCAAAGCUCAACACAGCGUGGCACAAUGGCUGUGGCUAGACUGUC,0.2
14,GGCAAAGCUCAACAUAGCAUGGCAAAGUGGCUGUAGCUACACUGCC,0.05
15,GGCAAAGCUCAACACAGCGUGGCAAAGUGGCUGUGGCUAGGUUGCC,0.06
16,GGCAAAGCUCAAGACAGCGUGGCAAAGUGGCUGUGGCUAGACUGGC,0.04
17,GGCAAAGCUCAACAAACCGUGGCAAAGUGGCUGUGGCUGGACUGCC,0.04
18,GGCAAAGCUCUACCCAGCGUAGCAAAGCGGCUGUGGCUAGACUGCC,0.01
19,GGCAAAGCUCAACACAGCGUGGCAAAGUGGCUGUGGGUAAACGGCC,0.02
20,GGCAAAGCUCAACACAGCGUGGCAAAGUGGCUGUGGGUAAACCGCC,0.04
21,GGCAAAGCUCAACACAGCGUGGGAAAGUGACUGUGGCUAGACUGCC,0.13
22,GGCAAAGCUCACCACAGCGUGGCAGAGUGGCUGUGGCUAGACUGCC,0.05
23,GGCAAAGCUCAACACUGCGGGGCAAAGUGGCUGCGGCUAGACUGCC,0.03

row,Variant,self-cleavage
1,GGCAAAACUCCACACAGCGUGGCAAAGUGGCUGUGGCUAGACUGCU,0.03
2,GGCAAAGCUCUACACAGCGUGGCAAAGUGGCUGUGGCCAGACUGCC,0.02
3,GGCAAAGCUCAACACAGCGUGGCAUCGUGGCUAUGGCUAGACUGCC,0.02
4,GGCAAAGCUAAACACAGCGUGGCAAAGUGGCUGUGGCUAGACUGCU,0.01
5,GGCAAAGCUCAUCACAGCGUGGCAAAGUGACUGUGGCUAGACUGCC,0.06
6,GGCAAAGCUCAACACAGUGUGGCAAAGUGUCUGUGGCUAGACUGCC,0.39
7,GGCAAAGCUCAACACAGCGUGGAAAAGUGGCCGUAGCUAGACUGAC,0.03
8,GGCAAAGCUCAGCACAGCGAGGCAAAGUGGCUGUGGCUAGACCGCC,0.03
9,GGCAAAGUUUAACACAGCGUGGCAAAGUGGCUGUGGCUAGACUGCC,0.04
10,GGCAAAGCUCAACAUAGCGUGGCAAAGUGGCUGUGCCUAGACUGCC,0.05
11,GGCAAAGCUCAGCACAGCGUGGCAAAGUGGCUGUGGCUAGCCUGCC,0.06
12,GGCAAAGCUCAAGACAACAUGGCGAAGUGGCUGUGGCUAGUCUGCC,0.07
13,GGCAAAGAUCAACACAGCCUGGCAAAGUGGCUGUGGCUAGCCGGCC,0.18
14,GGCAAAGCUCAAGACUGCGUUGCAAAGUGGCUGUGGCUAGACCGCC,0.03
15,GGCAAAGCUCAACACUGCGUGGAAAAGUGGCUGUGCCUAGACUGCC,0.1
16,GGCAAAGACCAACAAAGCGUGGCAAAGUGGCUGUGGCCAGACUGCC,0.04
17,GGCAAAACUCAACACAGCGUGGCAAAGUGGCUGUGGCUAGAAUGCC,0.1
18,GGCAAAGUUCAACACAGCGUGGCAAAGUGGCUGUGGCUAGACUCCC,0.28
19,GGCAAAGCUUAACACAGCGUAGUAAACUGGCUCUGGCUAAACUGCC,0.03
20,GGCAAAGCUCAAGACAGCGUGGCAAAGUGGCUUUGGCUAGAGUGCC,0.07
